# Source: PubChem BioAssay AID624202 (National Center for Advancing Translational Sciences (NCATS), 2012)
# The whole screen tested about 380,000 compounds, of which about 4,000 (1.1%) were called active. Inconclusive results, whose numbers are uncertain, are shown with a selection of clear calls. Calls follow the shape of the dose curve; as a rule, active = well fitted activation curve with a large enough effect; inconclusive = small, poorly fitted or top-dose-only effect; inactive = no such curve, though single readings can be large or run the other way. Potencies of inconclusive entries are doubtful fits and often do not repeat.
# Assay: qHTS Assay to Identify Small Molecule Activators of BRCA1 Expression; also: nearly all actives have a fitted effect of over 80% in size
# Settings: MCF7-BRCA1-FFLuc reporter, luminescence, 48 h; activation: at 46.1 µM (top of the series), scaled: vehicle 0%, 10 µM genistein 100% unless noted
# In short: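 48 h compound treatment of MCF7-BRCA1-FFLuc cells (phenol-red free MEM, 37 °C), then 15 min with luciferase substrate and luminescence imaging.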
# Potency is read from the fitted curve at half-maximal effect; tags tell the direction and shape of the fitted curve.
Compound,Potency,activation
CCOC(=O)C1=C(COC(=O)/C=C/c2ccccc2)NC(=O)NC1C (configuration not stated),inactive,–
Cc1ccc(-c2nnc(Cc3ccc(Cl)cc3)o2)cc1,active: 12.6 µM,–
COC(=O)c1cccc(-n2sc3ccccc3c2=O)c1,inactive,–
O=C(CSCc1ccco1)N1CCc2ccccc21,active: 2.51 µM,–
O=C(/C=C/c1cccs1)Nc1ccc(Br)cn1,"inconclusive: 2.82 µM [activator, partial curve, poor fit]",–
Cc1ccc(NC(=O)Nc2ccccc2)nc1,"inconclusive: 6.31 µM [activator, partial curve, poor fit]",–
COc1ccc(-c2nc(C)c(CCNC(=O)c3ccco3)s2)cc1,"inconclusive: 10 µM [activator, partial curve, poor fit]",–
c1ccc(CSc2nnc(Cc3ccccc3)o2)cc1,active: 12.6 µM,–
CCc1ccc(N2CC(C(=O)N/N=C/c3ccccc3OC)CC2=O)cc1 (configuration not stated),inactive,–
Cc1cccc(C(=O)Nc2nc3ccc(S(C)(=O)=O)cc3s2)c1,active: 3.16 µM,–
CCOC(=O)CNC(=O)CC(c1cc(OC)c(OC)c(OC)c1)N1Cc2ccccc2C1=O (configuration not stated),inactive,–
Cc1ccccc1S(=O)(=O)Oc1ccc2ccc(O)cc2c1,"inconclusive: 20 µM [activator, single point]",–
Cc1ccc(NC(=O)c2ccc3ccccc3n2)cc1S(=O)(=O)N(C)C,"inconclusive: 7.08 µM [activator, partial curve, poor fit]",–
COc1ccc2oc(=O)c(C(=O)Nc3cccc(C(C)=O)c3)cc2c1,"inconclusive: 12.6 µM [activator, partial curve, poor fit]",–
O=C(Nc1ccccc1)c1ccn[nH]1,active: 7.08 µM,–
O=[N+]([O-])c1ccc(C=CC=Cc2ccccc2)cc1,"inconclusive: 2.51 µM [activator, full curve, poor fit]",–
O=C(Nc1nc(-c2ccc3c(c2)OCO3)cs1)C1CC1,active: 4.47 µM,–
c1nc(CCO[C@H]2CCCCO2)cc2cc3c(cc12)OCO3,–,inconclusive: -48.9% [activator]
CCc1nnc(NC(=O)/C=C/c2ccc(C)o2)s1,active: 11.2 µM,–
CCN(CC)C(=O)c1ccc(-c2cccs2)s1,"inconclusive: 1.26 µM [activator, full curve, poor fit]",–
COc1ccc(/C(N)=N/OC(=O)c2ccco2)cc1,"inconclusive: 1.12 µM [activator, full curve, poor fit]",–
Cc1ccc(OCC(=O)Nc2ccc(-c3nnc(-c4ccco4)o3)cc2)cc1,"inconclusive: 2 µM [activator, partial curve, poor fit]",–
Cc1ccc(NC(=O)CCSc2ccccn2)cc1,"inconclusive: 10 µM [activator, partial curve, poor fit]",–
CCOC(=O)c1oc2nc3c(cc2c1N)CCCC3,"inconclusive: 2.24 µM [activator, full curve, poor fit]",–
COc1ccc(OCc2cc(C(=O)NCC3CCOCC3)no2)c(Cl)c1,"inconclusive: 11.2 µM [activator, partial curve, poor fit]",–
CC(=O)c1ccc(NC(=O)CSc2nc(=O)n(CCN3CCOCC3)c3c2CCC3)cc1,inactive,–

Compound,Potency,activation
O=C(NCCCc1ccccc1)Nc1ccccc1,inactive,–
COc1cccc(-c2nn(C)c3sc(C(=O)NCc4ccc(C)o4)cc23)c1,inactive,–
CC(=O)Oc1ccc(C(=O)Nc2ccc3c(c2)OCCO3)cc1,"inconclusive: 1.26 µM [activator, full curve, poor fit]",–
CCOC(=O)N/N=C/c1ccc(Oc2ccccc2)cc1,"inconclusive: 12.6 µM [activator, partial curve, poor fit]",–
Cn1c(=O)c2c(nc(OC/C=C/c3ccccc3)n2C)n(C)c1=O,inactive,–
O=C(O)c1cc(N/N=C/c2ccc3c(c2)OCCO3)ccc1Cl,–,inconclusive: -77.6% [activator]
Cc1ccc(N(CC(=O)Nc2ccc3c(c2)OCCO3)S(C)(=O)=O)cc1,"inconclusive: 12.6 µM [activator, partial curve, poor fit]",–
N#C/C(=C\c1ccc(OCc2ccc(F)cc2)cc1)C(=O)Nc1cccc(C(=O)O)c1,active: 11.2 µM,–
O=C(N/N=C/c1cccc2ccccc12)c1cccc(F)c1,"inconclusive: 12.6 µM [activator, single point]",–
CCCCNC(=S)Nc1ccc(Cl)cc1,"inconclusive: 28.2 µM [activator, single point]",–
O=C(CSc1nnc(-c2ccco2)n1Cc1ccccc1)c1ccccc1,active: 3.98 µM,–
CC(C)c1ccc(NC(=O)c2ccc3snnc3c2)cc1,"inconclusive: 2.51 µM [activator, full curve, poor fit]",–
NS(=O)(=O)c1cccc(NC(=O)Nc2ccc(Cl)cc2)c1,"inconclusive: 12.6 µM [activator, partial curve, poor fit]",–
CN(C)CCN(C(=O)C1=COCCO1)c1nc2ccc(Cl)cc2s1,active: 12.6 µM,–
Cc1ccc(NC(=O)c2ccc(OC(=O)C(C)Oc3ccc(Cl)cc3C)cc2)cc1 (configuration not stated),active: 5.01 µM,–
Cc1ccccc1CNC(=O)c1ccc(NC(=O)N2CCCCc3ccccc32)cc1,inactive,–
Brc1ccc(-c2cn3c(n2)SCC3)cc1,"inconclusive: 1.41 µM [activator, full curve, poor fit]",–
CS(=O)(=O)N(CC(=O)NCC1CCCO1)c1cc(Cl)ccc1Cl (configuration not stated),inactive,–
Cc1c(NC(=O)/C(=C/c2cccs2)c2cccs2)c(=O)n(-c2ccccc2)n1C,inactive,–
CC1=NN(c2ccccc2)C(c2ccco2)C1 (configuration not stated),inactive,–
OCCCN=c1cc(-c2ccccc2)oc2ccc(Cl)cc12,inactive,–
O=C(Nc1ccc(Br)cn1)c1ccc(Cl)s1,–,inconclusive: 74% [activator]
Cc1ccc(N2C(=O)c3ccccc3NC2(C(=O)O)c2ccccc2)cc1Cl (configuration not stated),"inconclusive: 35.5 µM [activator, single point]",–
CC(C)(O)C(=O)N/N=C\c1ccc(OC/C=C/c2ccccc2)cc1,"inconclusive: 12.6 µM [activator, partial curve, poor fit]",–
CC(C)Oc1cccc(C(=O)N/N=C/c2ccoc2)c1,"inconclusive: 10 µM [activator, partial curve, poor fit]",–
O=C(Nc1nc(-c2ccc(Cl)cc2)cs1)C1CCCO1 (configuration not stated),active: 6.31 µM,–

Compound,Potency,activation
COc1cccc(C(=O)Nc2ccc3nc4n(c(=O)c3c2)CCCCC4)c1,active: 4.47 µM,–
Cc1ccc(S(=O)(=O)NCc2c(-c3ccccc3)noc2C)cc1,inactive,–
CCc1ccc(NC(=O)CCS(=O)(=O)c2ccc(Br)cc2)cc1,inactive,–
C=COC(=O)NC1CCc2cc(OC)c(OC)c(OC)c2-c2ccc(SC)c(=O)cc21 (configuration not stated),–,inconclusive: -89.8% [activator]
O=C(Nc1nc2ccc(Br)cc2s1)c1ccco1,"inconclusive: 1.58 µM [activator, partial curve, poor fit]",–
O=C(CCl)Oc1ccc2occ(C(=O)c3cccs3)c2c1,"inconclusive: 35.5 µM [activator, single point]",–
Clc1ccc(-c2cc(CN3CCOCC3)no2)cc1,"inconclusive: 1.78 µM [activator, full curve, poor fit]",–
COc1ccc(-c2cc(=O)c3cc(OC)ccc3[nH]2)cc1,"inconclusive: 2 µM [activator, partial curve, poor fit]",–
O=C(Nc1cc(C(F)(F)F)ccc1N1CCOCC1)c1c(F)c(F)c(F)c(F)c1F,inactive,–
CCCN(CCC)c1ncnc2c1cnn2-c1ccc(OC)cc1,"inconclusive: 0.631 µM [activator, full curve, poor fit]",–
O=C(/C=C/c1ccnc2ccccc12)c1cccs1,–,inconclusive: -84.9% [activator]
CCOC(=O)c1cnc(SCc2cccc(C)c2)nc1N,active: 10 µM,–
CCCCN=C(C)c1c(O)c2ccccc2oc1=O,"inconclusive: 11.2 µM [activator, partial curve, poor fit]",–
CCOC(=O)c1cnc(SCC(=O)c2ccccc2)nc1N,"inconclusive: 2.51 µM [activator, full curve, poor fit]",–
O/N=C/c1ccn(-c2ccc(Br)cc2)c1,"inconclusive: 10 µM [activator, partial curve, poor fit]",–
CCCCCc1nnc(NC(=O)C2CCCO2)s1 (configuration not stated),"inconclusive: 17.8 µM [activator, single point]",–
O=C(Nc1cccnc1)c1cn(-c2ccccc2)nc1-c1cccs1,"inconclusive: 3.55 µM [activator, partial curve, poor fit]",–
Cc1ccc(C)c(OCc2cc(C(=O)N(C)Cc3ccccn3)no2)c1,"inconclusive: 31.6 µM [activator, single point]",–
CCOC(=O)C1(Cc2ccccc2C)CCCN(C(=O)c2ccc(COC)o2)C1 (configuration not stated),"inconclusive: 31.6 µM [activator, single point]",–
COc1cc(OC)c(NC(=O)CSc2cc(=O)n(C)c3ccc(Cl)cc23)cc1Cl,inactive,–
O=C(Nc1ccc(N2CCN(C(=O)c3ccc(Cl)cc3)CC2)cc1)c1cccnc1,inactive,–
CC(=O)N(C)c1ccc(NC(=O)c2ccco2)cc1,active: 6.31 µM,–
O=C(CCNC(=O)c1ccccc1Cl)Nc1ccc(Cl)c(C(F)(F)F)c1,inactive,–
CSc1ccc(/C=C/C(=O)Nc2ccccc2)cc1,"inconclusive: 2.24 µM [activator, full curve, poor fit]",–
COCCNC(=O)C(c1ccc(C)o1)N(C(=O)c1snc(C(N)=O)c1N)c1cccc(C)c1 (configuration not stated),inactive,–
